This is an account of results in PubChem BioAssay AID463173 (ICCB-Longwood Screening Facility, Harvard Medical School, 2010).

In all, about 52,000 compounds went through this assay and about 1,700 (3.3%) were called active. No stated cut-off is given here; in the data, active means survival mostly below about 52% (no sharp cut-off); inactive means mostly above about 56%. Some of the results follow.

In this experiment the test system is Wild type. Put plainly: growth inhibition of S. aureus wild type versus tarO mutant, primary screen, teichoic acid synthesis inhibitors, RN4220, OD600 (AID 463173). To be noted: S. aureus RN4220 wild type/DeltatarO growth, OD600, 18 h, hits give low values, screened at 18.75 µg/mL (by protocol).
Turning to `CCc1cccc(-n2nnc(-c3nsc(NC(=O)c4cccs4)n3)c2C)c1`, the survival is active: -6%.

For `CC(=O)Nc1ccc2nc(-c3cc(C)ccc3C)[nH]c2c1`, the survival was inactive: 143%.

Take `Cc1cc(N2CCC(C(N)=O)CC2)nc(-c2ccccc2)n1`: the survival is inactive: 101%.

Take `CCCCN(CC)CCNC(=O)c1cn(C)c(=O)c2c1c1ccccc1n2C`: the survival was inactive: 82%.

Regarding `Cc1ccc(OCc2ccc(-c3nc(C#N)c(NCc4cccnc4)o3)o2)cc1`, the survival was inactive: 62%.

Turning to `COc1ccc(S(=O)(=O)NCC(c2ccco2)N2CCN(c3ccc(F)cc3)CC2)cc1C` (stereo not drawn), the survival was inactive: 70%.

`COc1ccc(NC(=O)CCc2c(C)nc3nc(CNC(=O)OC(C)(C)C)nn3c2C)cc1OC`: the survival is inactive: 98%.

Regarding `O=C(Nc1ccc(F)c(Cl)c1)C1CCCN(c2cnccn2)C1` (stereo not drawn), the survival is inactive: 86%.

`COc1ccc(CC2C(=O)Nc3ccc(Br)cc32)cc1OC` (stereo not drawn): the survival was inactive: 75%.

Consider `CCc1ccc(NC(=O)CC2C(=O)N(c3cccc(C)c3)C(=O)N2Cc2ccco2)cc1` (stereo not drawn), for which the survival is inactive: 128%.

On to `CCc1ccccc1NC(=O)N1CCN(C(=O)c2nsc3ccccc23)CC1`, for which the survival was active: -1%.

On to `CC(=O)N1CCCC1c1nc2ccccc2n1Cc1ccccc1C` (stereo not drawn), for which the survival was inactive: 97%.

Consider `CC1CCN(S(=O)(=O)c2ccc3c(ccn3CCC(=O)NCc3ccc(N(C)C)cc3)c2)CC1`, for which the survival is inactive: 78%.

Turning to `COc1cccc2cc(C(=O)NCCc3c(C)[nH]c4ccc(F)cc34)c(=O)oc12`, the survival was inactive: 83%.

For `CCNc1nc(NC(C)(C)C)nc(Oc2ccc(=O)n(C)n2)n1`, the survival is inactive: 72%.

Consider `CCS(=O)(=O)N1CCc2cc(C(=O)NCCc3ccc(OC)cc3)ccc21`, for which the survival was inactive: 116%.

For `CC1CCN(S(=O)(=O)c2nnc(NC(=O)c3cccc(Br)c3)s2)CC1`, the survival was inactive: 33%.

As to `COc1cc(NC(=O)CC(C)n2nc(C)cc2C)cc(OC)c1` (stereo not drawn), the survival was inactive: 92%.

In the case of `O=C(NCCc1ccccc1)C(=O)NCC(c1ccc2c(c1)OCO2)N1CCOCC1` (stereo not drawn), the survival is inactive: 70%.

With `COc1cc(NC(=O)C(CCSC)NS(=O)(=O)c2ccc3c(c2)oc(=O)n3C)cc(OC)c1` (stereo not drawn), the survival was inactive: 65%.

Regarding `COC(=O)c1cn(C(=O)OC)c2ccccc12`, the survival was inactive: 107%.

Regarding `Cc1ccc(-c2nnc3ccccc3c2C(=O)Nc2ccccc2F)cc1`, the survival was inactive: 86%.

In the case of `Cc1ccc(NC(=O)Cn2c(=O)n(CCC(=O)NCc3ccccc3Cl)c(=O)c3ccccc32)cc1`, the survival is inactive: 153%.

Consider `CCOc1ccccc1C(=O)N(Cc1ccccc1F)C1CCS(=O)(=O)C1` (stereo not drawn), for which the survival was inactive: 85%.

As for `COc1cc2[nH]c(=O)c(C(=O)NC3CCCC3)c(O)c2cc1OC`, the survival was inactive: 93%.

Consider `COc1ccc(Cl)cc1NC(=O)CSc1cn(CC(=O)N2CCCCCC2)c2ccccc12`, for which the survival was inactive: 91%.

For the compound `O=C(CCC1CCCC1)N1CCCC(c2nc(-c3ccc(F)cc3)no2)C1` (stereo not drawn), the survival is inactive: 111%.

Consider `S=C1N(CN2CCOCC2)CCN1CN1CCOCC1`, for which the survival was inactive: 108%.

On to `O=C(NCc1ccccn1)C1C2C=CC(C2)C1C(=O)Nc1ccc(F)cc1` (stereo not drawn), for which the survival was inactive: 110%.

`COc1ccccc1NC(=O)CSc1nc(-c2ccccc2F)nc2cc(=O)[nH]n12`: the survival is inactive: 73%.

As for `CC(=O)Nc1ccc(NC(=O)C(C)C)nc1`, the survival is inactive: 109%.

Consider `Cc1ccc(-n2c(=O)c3c(c4cc(C)ccc4n3C)n(CC(=O)NCc3ccccc3)c2=O)cc1`, for which the survival was inactive: 91%.

In the case of `Cc1ccc2occ(CC(=O)N(Cc3ccc(C(C)C)cc3)C3CCS(=O)(=O)C3)c2c1` (stereo not drawn), the survival is inactive: 65%.

For the compound `CC(C)(C)c1ccc(C(=O)N2CCC(c3nc4ccccc4o3)CC2)cc1`, the survival was inactive: 102%.

`O=C(CNS(=O)(=O)c1ccc(Cl)cc1)NC1CCCC1`: the survival was inactive: 103%.

Turning to `O=C(CCC1N=C2c3ccccc3N=C(SCc3ccccc3F)N2C1=O)NCc1ccc(F)cc1` (stereo not drawn), the survival is inactive: 73%.

Turning to `COc1ccc(NC(=O)c2c(NCc3cccc(OC)c3)sc3c2CCCC3)cc1`, the survival was inactive: 88%.

Consider `CC1=C(c2ccc(Cl)cc2)S(=O)(=O)N=C1N1CCC(C(=O)NCc2ccccc2F)CC1`, for which the survival is inactive: 81%.

`COc1ccc(-c2onc(C)c2C)cc1S(=O)(=O)NCC1CCN(Cc2cccc(F)c2)CC1`: the survival was inactive: 76%.

With `COc1ccc(CCNc2nc3c(-c4cccc(C)c4)nnn3c3ccccc23)cc1OC`, the survival was inactive: 129%.

Turning to `Cc1cccc(N2CCN(C(=O)Cn3nc(Cc4cccnc4)c4ccccc4c3=O)CC2)c1C`, the survival is inactive: 92%.

With `FC(F)(F)c1cccc(N2CCN(CCN3CCOCC3)CC2)c1`, the survival was inactive: 109%.

Consider `Clc1cccc(-n2ncc3c(NCCCn4ccnc4)ncnc32)c1`, for which the survival is inactive: 82%.

Consider `COc1ccc(NC(=O)Cn2c(=O)ccc3cc(S(=O)(=O)N4CCCC4)ccc32)cc1Cl`, for which the survival was inactive: 124%.

`COc1ccc(CNC(=O)Cn2c(=O)cc(-c3ccccc3)c3c(C)nn(C)c32)cc1`: the survival is inactive: 73%.

In the case of `COc1ccc(S(=O)(=O)N(CC(=O)Nc2cccnc2)c2ccc(Cl)cc2)cc1`, the survival was inactive: 63%.

With `CCOc1ccccc1CNC(=O)c1cccn1-c1nnc(N2CCCC2)s1`, the survival was inactive: 75%.

`Cc1ccccc1NC(=O)c1c(C)oc2ccc(O)c(CN3CCN(C)CC3)c12`: the survival was inactive: 82%.

For `O=C(O)C1CCCN1S(=O)(=O)c1ccc2ccccc2c1` (stereo not drawn), the survival is inactive: 117%.

As to `CCc1ccc2oc(C(=O)Nc3ccccc3C(=O)OC)cc(=O)c2c1`, the survival is inactive: 87%.

In the case of `CC(C)(C)c1ccc(-c2nc(SCC(=O)Nc3ccccc3F)n3[nH]c(=O)cc3n2)cc1`, the survival was inactive: 87%.

For `Cc1ccccc1CSc1cn(CC(=O)N2CCCCCC2)c2ccccc12`, the survival was inactive: 81%.

As to `Cc1cccn2c(=O)c(C(=O)NCCc3ccc(S(N)(=O)=O)cc3)c(O)nc12`, the survival was inactive: 61%.

As for `O=C(Nc1ccc(Cl)c(C(F)(F)F)c1)C1CCN(S(=O)(=O)c2cccc3nonc23)CC1`, the survival was inactive: 90%.

Take `COc1ccc(CNC(=O)COCc2cc(-c3cccs3)on2)cc1`: the survival is inactive: 94%.

For `O=C(O)Cn1ccc2cc(S(=O)(=O)N3CCCCCC3)ccc21`, the survival was inactive: 81%.

`O=C(CCOc1ccccc1)N(Cc1cccnc1)c1nc2c(F)cccc2s1`: the survival was inactive: 82%.

For `CCCCn1c(NCc2ccc(N(C)C)cc2)nc2ccccc21`, the survival was inactive: 70%.
